In the supplement of paper PMC3334620:
Whole data set: some 33,000 sequences, median “E-score (-0.5 to 0.5)” near -0.036, cut for the highest 2% near 0.37. Some of the results follow.

Target: T1, Yer064c (UniProt P40041)
T1 sequence: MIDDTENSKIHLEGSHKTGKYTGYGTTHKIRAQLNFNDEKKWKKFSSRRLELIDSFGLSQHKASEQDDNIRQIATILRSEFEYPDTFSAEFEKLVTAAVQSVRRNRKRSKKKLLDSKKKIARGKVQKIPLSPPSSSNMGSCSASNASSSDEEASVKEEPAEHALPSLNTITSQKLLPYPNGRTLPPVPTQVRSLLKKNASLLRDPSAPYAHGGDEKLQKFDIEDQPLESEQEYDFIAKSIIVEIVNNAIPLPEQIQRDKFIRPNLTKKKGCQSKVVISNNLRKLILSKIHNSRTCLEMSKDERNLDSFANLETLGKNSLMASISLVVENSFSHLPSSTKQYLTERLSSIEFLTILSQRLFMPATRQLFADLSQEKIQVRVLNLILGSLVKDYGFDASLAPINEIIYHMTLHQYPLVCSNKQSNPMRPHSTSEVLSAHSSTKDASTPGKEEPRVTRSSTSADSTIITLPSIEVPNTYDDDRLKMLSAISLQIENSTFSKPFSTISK
Assay: PBM E-score (8-mer binding enrichment) (E-score (-0.5 to 0.5)); higher = stronger / more preferred TF binding; most listed sequences are background and not binding sites
Conditions: protein concentration: 200 nM; construct: GST-full length
Outline: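 Yeast transcription factors carrying a GST tag, as full-length proteins or DNA-binding domains, were produced by PURExpress in vitro transcription/translation. About 100-200 nM protein was applied to universal all-10-mer Agilent arrays, double-stranded by primer extension on fresh or once-stripped slides. Bound protein was detected with fluorescent anti-GST, and scans were normalised with masliner. The Universal PBM Analysis Suite gave each ungapped eight-base word, pooled with its reverse complement, an E-score, a modified Wilcoxon-Mann-Whitney statistic.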

Point of comparison: CGGCCCCA, “PBM E-score” value -0.261. Against it:
- ACTGGCTG — higher, -0.0516
- GCGACTAC — higher, 0.391
- ACAACTCC — higher, -0.2
- AAAGCATT — higher, -0.01
- CCATGCAA — higher, -0.173
- AACCCAGT — higher, -0.0689
- GGGGGACC — lower, -0.263
- CGATCTAA — higher, 0.0729
- CTATACGC — higher, 0.0177
- CTGCTTCC — lower, -0.371
- AGAAGTTC — higher, -0.0131
- CAGTCCCA — higher, 0.134
- AATGCTCC — higher, -0.257
- CAACCTAG — higher, -0.104
- AGCCTGGG — higher, -0.158
- GTCGAAAA — higher, -0.00581
- ATAATGGC — higher, -0.0632
- ATCCGGGG — higher, -0.0717
- TAAAACTA — higher, 4e-05
- AATTAACA — higher, 0.109
- TGGCGACA — higher, -0.0682
- AGCTGTGA — higher, 0.128
- CTTTAGTA — higher, 0.14
- AGAATGAT — higher, 0.225
- CAATAGTA — higher, -0.0839
- AAGTACTC — higher, 0.282
- GTTCGTAA — higher, 0.054
- GTTGTCCA — higher, 0.0202
- AAATCCAG — higher, -0.0728
- ACGCTTAT — higher, -0.0958
- GACCAGGC — higher, -0.197
- AGAGACAG — higher, -0.0696
- GTGCAGAA — higher, -0.117
- AGATTAGC — higher, 0.123
- CTAGGATC — higher, -0.157
- ATTTGGAA — higher, 0.00722
- TAATTCCA — higher, -0.0152
- AAGGTCAA — higher, -0.0628
- AACTCCAC — higher, -0.115
- GCAGAGCA — higher, -0.173
- CTTGCGAC — higher, 0.158
- ATAGGGTA — higher, -0.0458
- GAGTCCTA — higher, 0.399
- ATCGAGCC — higher, 0.0378
- GCTTAACA — higher, -0.0624
- CATGCATA — higher, 0.00799
- TGAAGGCA — higher, -0.0731
- CTCACATA — higher, 0.116
- TAGTGGAA — lower, -0.27
- TCGGTGCA — higher, -0.151
- CCGGCAGA — higher, -0.182
- CGGCGATC — higher, -0.0422
- GCGCCGGA — higher, -0.233
- CGGTCCTC — higher, -0.258
- CAGGTGAC — higher, 0.352
- GGTCATGA — higher, 0.255
- CGAAACTA — higher, 0.0571
- CCTCGCGC — higher, -0.0733
- AGTGCAAT — higher, 0.04
- ATCTATGA — higher, 0.215
- AGGCCCCG — lower, -0.286
- ATCTAGAG — higher, 0.168
- CGATTTGC — higher, -0.0666
- ATACCTGA — higher, 0.135
- CTCATAAA — higher, 0.328
- CCTAGACA — higher, -0.0478
- AGAGCTCA — higher, -0.0599
- ACCTCATA — higher, 0.0846
- ATGTGTAG — higher, 0.18
- GCGATCGC — lower, -0.34
- GGAGGTAA — higher, -0.041
- CTCGTGTA — higher, 0.079
- GGCTTGAC — higher, 0.0998
- ACAATGAA — higher, 0.144
- AGCCGGTA — higher, -0.232
- CGCTGTGA — higher, 0.102
- CCCCCCAG — higher, -0.222
- GATTACAA — higher, 0.258
- GGGACAGA — higher, 0.0714
- ATTGGTCG — higher, -0.166
- TCAAGCGA — higher, 0.118
- CGCGACGC — higher, -0.154
- CGTACTCA — higher, 0.335
- CCGGCGCA — higher, -0.0981
- CAAGACAC — higher, -0.00685
- CTTGCAAG — higher, -0.0521
- ATAGCGTA — higher, -0.0811
- CTGACGAC — higher, 0.229
- ATATGTTA — higher, -0.258
- TACCCTGA — higher, 0.146
- ACAGCATC — higher, -0.0879
- AATGAGGA — higher, -0.00162
- CCAATAGC — higher, -0.252
- CTGGACAG — higher, 0.0136
- CACACCTC — higher, -0.0423
- ACGTTCCC — lower, -0.338
- ATTAATTG — higher, 0.238
- AACTTGTG — higher, -0.0303
- AGAATCTA — higher, 0.0859
- CGTCCAAA — higher, 0.0317
- ATGGGAAG — higher, -0.195
- AAACGATA — higher, 0.157
- ATTTTAGG — higher, -0.0322
- AGAGTGAG — higher, 0.129
- CACCGACA — higher, -0.0748
- AAAAGTAG — higher, 0.0768
- CGGAGGAC — higher, -0.0531
- AACGGGTA — higher, 0.105
- ACTTGTCA — higher, -0.0746
- AGCAAGAC — higher, -0.0037
- GTGCCCGA — higher, -0.0755
- AAGTACTG — higher, 0.202
- ACACGCCG — higher, -0.0377
- AAACACAA — higher, 0.0917
- ACATCCCG — higher, -0.109
- CTTGCGTA — higher, 0.0895
- AGACGCGA — higher, 0.0337
- AGATCGCG — higher, 0.076
- GCAGAAAC — higher, -0.0754
- AAGTTACG — higher, -0.0147
- GACACGCA — higher, -0.104
- ACTAAAAG — higher, 0.245
- GCTAGATA — higher, -0.0249
- AAGCTGAG — higher, 0.144
- TATAGTCA — higher, 0.467
- GTATGGTA — higher, 0.0984
- CCAGACTC — higher, 0.206
- CTAAGAGA — higher, 0.0493
- CCCCTAGG — higher, -0.073
- CGAGAACC — higher, 0.0116
- GACAGTAC — higher, 0.0542
- GAGAGCAC — higher, -0.0429
- CTTAGTTC — higher, 0.0883
- ACCGTTCT — higher, -0.152
- GAATCTAC — higher, 0.0943
- GAGTGCAA — higher, 0.06
- AAGACGGC — lower, -0.291
- TCAAAGGA — higher, 0.153
- ATGTTATG — higher, 0.0503
- CGCAATGC — higher, -0.205
- ACCACAGT — higher, 0.0774
- GTAGATAC — higher, -0.203
- CACCACTA — higher, 0.153
- CAGGACCC — higher, -0.208
- CGCAGTGA — higher, 0.0233
- ATTGTAAC — higher, 0.0714
- ACATGACG — higher, -0.00033
- CCACGAAC — higher, -0.0469
- GCAGGTCC — lower, -0.318
- CCAGGACG — higher, -0.259
- CAAAATTA — higher, 0.174
- CTGCTTCA — higher, -0.138
- CCCCAAGG — higher, -0.213
- CCAACTGA — higher, 0.144
- AAACATGT — higher, 0.0483
- CGTCATAA — higher, -0.00764
- GTTGCACA — higher, 0.03
- AAATCCAC — higher, -0.0693
- AGAGCTTG — higher, -0.121
- AGCCCGTA — lower, -0.389
- ACGAAGAA — higher, 0.101
- ATTCACAG — higher, 0.078
- ATGAGAGG — higher, -0.0459
- AACGTTTA — higher, -0.183
- GCCACTCC — higher, -0.128
- GTACGATA — higher, 0.0242
- ACGGAATA — higher, 0.102
- ACGCCGGA — higher, -0.227
- AAACACCC — higher, -0.0882
- CCCGTCGC — higher, -0.0794
- ACTGCTAG — higher, 0.0957
- AGACTTTG — higher, 0.0959
- AGGGGGGG — lower, -0.404
- CCAAGGAA — higher, -0.224
- AATTTTGA — higher, 0.149
- GATCAGTA — higher, 0.201
- AAAGTGTC — higher, -0.238
- ACTATGGA — higher, 0.184
- GATAAAAA — higher, 0.135
- CCCGTCGA — higher, -0.0116
- AGGCAAGC — lower, -0.37
- ATATACTG — higher, 0.0631
- ATTTTTTC — higher, 0.0658
- CGAGATTC — higher, 0.0578
- CATGATAC — higher, 0.144
- CGTCCCTA — higher, -0.243
- CTGGCTGC — the same, -0.261
- CCTGGTCG — higher, -0.0752
- CCAAGTAG — higher, -0.0719
- GGACAGCA — higher, 0.0107
- GAGACCCC — higher, -0.159
- ATTTCCTG — higher, 0.0946
- CTTTTGCC — higher, -0.142
- CGAATGAA — higher, -0.121
- AAATCTGC — higher, -0.0261
- GCTCGCCC — higher, -0.0827
- ATTGACAC — higher, 0.0304
- CGGAAGGA — higher, -0.0792
- ACTGATAC — higher, -0.00937
- ATGGTTCA — higher, 0.341
- GATAACTA — higher, 0.0463
- CTAGCATA — higher, 0.0257
- CTGAGCGC — higher, -0.195
- AAGGAGTC — higher, 0.412
- AACCCGTA — higher, -0.125
- AAATGGTA — higher, -0.0673
- CTTGATCC — higher, 0.0127
- AAAATGCC — higher, -0.219
- CCTTAGAA — higher, 0.00114
- GTTCACAA — higher, 0.0949
- GCTGAGAC — higher, 0.255
- GATGCAAA — higher, -0.235
- GCTAATGA — higher, 0.101
- AGGCCTAT — higher, -0.191
- CGAGCTAA — higher, -0.211
- GCTGGAGA — lower, -0.291
- AACATCCT — higher, -0.0435
- GATGCCGA — higher, -0.0727
